Article PMC4336329 (PLoS ONE, 2015)
Screen size: about 310,000 compounds; about 2,200 (0.71%) showed an effect of 50% or more. Effects have a minus sign here. This is one part of the list.

Each compound was assayed against human ether-à-go-go-related gene (hERG) potassium channel (human, UniProt Q12809) (assay: primary screen, population patch clamp on CHO cells stably expressing hERG).
Sequence of human ether-à-go-go-related gene (hERG) potassium channel (Q12809 whole entry, looked up): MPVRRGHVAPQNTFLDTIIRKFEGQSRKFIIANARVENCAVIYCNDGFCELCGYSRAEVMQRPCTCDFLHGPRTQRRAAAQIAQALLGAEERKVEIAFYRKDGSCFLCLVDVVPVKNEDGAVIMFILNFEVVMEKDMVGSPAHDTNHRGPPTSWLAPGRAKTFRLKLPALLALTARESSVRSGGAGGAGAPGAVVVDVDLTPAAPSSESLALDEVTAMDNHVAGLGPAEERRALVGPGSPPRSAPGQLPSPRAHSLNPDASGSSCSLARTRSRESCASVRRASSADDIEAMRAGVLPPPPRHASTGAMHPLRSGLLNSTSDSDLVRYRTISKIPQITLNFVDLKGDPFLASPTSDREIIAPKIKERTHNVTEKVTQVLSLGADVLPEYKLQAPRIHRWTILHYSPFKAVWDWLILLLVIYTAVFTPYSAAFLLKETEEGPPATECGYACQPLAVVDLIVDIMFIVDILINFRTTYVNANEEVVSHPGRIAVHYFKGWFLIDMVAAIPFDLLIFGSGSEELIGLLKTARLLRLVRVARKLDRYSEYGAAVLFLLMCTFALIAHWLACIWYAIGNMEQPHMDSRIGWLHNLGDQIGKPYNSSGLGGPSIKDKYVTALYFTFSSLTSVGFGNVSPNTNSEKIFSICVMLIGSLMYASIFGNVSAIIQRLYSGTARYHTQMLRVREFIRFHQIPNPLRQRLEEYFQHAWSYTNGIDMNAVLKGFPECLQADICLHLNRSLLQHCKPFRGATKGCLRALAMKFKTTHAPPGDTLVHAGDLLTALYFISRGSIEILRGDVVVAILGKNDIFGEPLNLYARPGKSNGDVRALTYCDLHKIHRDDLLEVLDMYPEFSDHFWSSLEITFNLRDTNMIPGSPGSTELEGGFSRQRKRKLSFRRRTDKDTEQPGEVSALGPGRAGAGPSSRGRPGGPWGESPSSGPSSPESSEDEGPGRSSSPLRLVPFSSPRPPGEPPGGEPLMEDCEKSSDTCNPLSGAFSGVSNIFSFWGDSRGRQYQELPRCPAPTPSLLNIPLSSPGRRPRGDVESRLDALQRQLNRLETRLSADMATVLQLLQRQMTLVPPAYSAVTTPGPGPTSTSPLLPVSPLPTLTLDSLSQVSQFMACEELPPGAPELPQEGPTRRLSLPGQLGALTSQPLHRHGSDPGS

Compared with `COC(=O)c1ccc(C(=O)NC(=S)Nc2nc3c(s2)CCCC3)cc1`, `O=C(NC(=S)Nc1ccc(NC(=O)c2ccco2)cc1)c1ccccc1` is higher in “hERG current change (%, negative = inhibition) at 1uM” value: 10.8% for the first, 12.2% for the second.

Going from `CCOC(=O)C1=C(O)c2ccccc2C(=O)/C1=C\c1ccc(C)cc1` to `COC(=O)C1CN(C(=O)COc2ccc(C)cc2)c2ccccc2O1` (centres unmarked), the “hERG current change (%, negative = inhibition) at 1uM” value falls from 10.2% to 6.14%.

First: Cc1nc(SCC(=O)N(CC(C)C)C2CCS(=O)(=O)C2)c2ccccc2n1 (centres unmarked)
Second: C=CCn1c(SCC(=O)N(CCC)C2CCS(=O)(=O)C2)nnc1-c1ccccc1OC (centres unmarked)
The “hERG current change (%, negative = inhibition) at 1uM” value of the first is higher: 8.07% for the first, 5.64% for the second.

Compared with `Cn1c(=O)c2c(nc(N3CCCCCC3)n2CC(O)COc2ccc(Cl)cc2)n(C)c1=O` (centres unmarked), `CCCCn1c(SCC(=O)N2CCOCC2)nc2c1c(=O)n(C)c(=O)n2C` is higher in “hERG current change (%, negative = inhibition) at 1uM” value: 6.1% for the first, 6.81% for the second.

First: Cc1cccc(C(=O)Nc2ccc(Cl)cc2C(=O)c2ccccc2)c1
Second: CCCCCOC(=O)c1ccc(NC(=O)c2cccc(NC(=O)c3ccccc3C(=O)O)c2)cc1
The “hERG current change (%, negative = inhibition) at 1uM” value of the first is lower: 5.99% for the first, 15.3% for the second.

First: CC(C)Cn1cc(C(=O)NCc2cccs2)c2c3ccccc3n(C)c2c1=O
Second: COc1cc2c(cc1NC(=O)COC(=O)[C@@H](NC(=O)c1ccccc1F)C(C)C)oc1ccccc12
The “hERG current change (%, negative = inhibition) at 1uM” value of the first is lower: 4.2% for the first, 8.03% for the second.

Compared with `COc1ccc(NC(=O)COC(=O)CNS(=O)(=O)c2ccc(C)cc2)c(OC)c1`, `CC(=O)c1cc2c(cc1NS(=O)(=O)c1ccc(C)cc1)OCCO2` is lower in “hERG current change (%, negative = inhibition) at 1uM” value: 15.6% for the first, 11.2% for the second.

Going from `CN(c1ccc(O)cc1)c1nc(-c2cccnc2)cs1` to `Clc1ccc(-c2csc(N/N=C/c3cccnc3)n2)c(Cl)c1`, the “hERG current change (%, negative = inhibition) at 1uM” value falls from 10.2% to -3.48%.

Compared with `COCCNC(=O)/C(C#N)=C/c1c(N2CCCCCC2)nc2ccccn2c1=O`, `COc1ccc(C(=O)Nc2ccc(N3CCCCCC3)cc2)cc1S(=O)(=O)N1CCOCC1` is lower in “hERG current change (%, negative = inhibition) at 1uM” value: 8.17% for the first, 3.39% for the second.

Compared with `CC1(c2ccccc2)NC(=O)N(CC(=O)Nc2cc3c(cc2Br)OCCO3)C1=O` (centres unmarked), `CCN(CC)c1ccc(NC(=O)CCCCCN2C(=O)c3ccccc3C2=O)cc1` is lower in “hERG current change (%, negative = inhibition) at 1uM” value: 0.314% for the first, -0.349% for the second.

Going from `CCCCCCC(=O)NNC(=O)c1c(O)c2ccccc2n(CC)c1=O` to `CCN1C(=O)N[C@@H](CCc2ccccc2)[C@H](C(=O)OC)[C@H]1C`, the “hERG current change (%, negative = inhibition) at 1uM” value rises from -11.9% to 11.1%.

Going from `COc1cccc(N2CCN(C(=O)c3cc4c(OC)c(OC)c(OC)cc4[nH]3)CC2)c1` to `COc1ccc(CC(=O)N2CCN(S(=O)(=O)c3cccs3)CC2)cc1OC`, the “hERG current change (%, negative = inhibition) at 1uM” value rises from 7.79% to 9.13%.

Going from `COc1cc(C)ccc1OCCCOc1cc(C)ccc1Cl` to `COc1ccc(OCCCc2c(C)n[nH]c2C)cc1`, the “hERG current change (%, negative = inhibition) at 1uM” value falls from 0.631% to -4.19%.

Compared with `COn1c(-c2ccc(Cl)cc2)nc2ncccc21`, `O=C(CCCn1nnc(-c2cccnc2)n1)c1ccc(F)cc1` is lower in “hERG current change (%, negative = inhibition) at 1uM” value: 7.93% for the first, 2.2% for the second.

First: CN(CC(=O)Nc1ccc(N2CCOCC2)cc1)C(=O)c1ccc(O)c(Cl)c1
Second: COc1ccc(N2CCN(C(=O)CN(c3ccccc3)S(C)(=O)=O)CC2)cc1
The “hERG current change (%, negative = inhibition) at 1uM” value of the first is higher: 10.4% for the first, 4.23% for the second.

Going from `O=C(OCc1nc2ccccc2s1)c1cccs1` to `O=C(CCCc1nc2ccccc2s1)NCc1ccc(F)cc1`, the “hERG current change (%, negative = inhibition) at 1uM” value falls from 8.17% to -7.71%.

Going from `CCC(Sc1nc2ncccc2[nH]1)C(=O)NC1CCCC1` (centres unmarked) to `COc1ccccc1-n1nnnc1SCC(=O)NC1CC1`, the “hERG current change (%, negative = inhibition) at 1uM” value rises from 4.14% to 8.58%.

First: CC(C)CC(NC(=O)c1ccc(Cl)cc1)C(=O)O (centres unmarked)
Second: CCOC(=O)c1ccc([N+](=O)[O-])cc1NC(C)=O
The “hERG current change (%, negative = inhibition) at 1uM” value of the first is higher: 9.23% for the first, 6.31% for the second.

First: S=C1NC2(CCCCC2)NC12CCCCC2
Second: CN(C)C1(CNC(=O)c2ccc(Cl)c(S(=O)(=O)NCc3ccco3)c2)CCCCC1
The “hERG current change (%, negative = inhibition) at 1uM” value of the first is higher: 14% for the first, -4.07% for the second.

Compared with `CCN(CC)S(=O)(=O)c1cccc(-c2nnc(SC(C)C(=O)NCCC3=CCCCC3)o2)c1` (centres unmarked), `CCN(CC)C(=O)CSc1nc(-c2ccccc2)ccc1C#N` is lower in “hERG current change (%, negative = inhibition) at 1uM” value: 3.83% for the first, -5.5% for the second.

Compared with `Cc1cccc(CN2CCCC(C(=O)c3cccc(OC(C)C)c3)C2)n1` (centres unmarked), `N#CC(c1nc2ccccc2nc1OCCO)S(=O)(=O)c1ccccc1` (centres unmarked) is higher in “hERG current change (%, negative = inhibition) at 1uM” value: -4.82% for the first, 9.51% for the second.

First: CCn1cc([N+](=O)[O-])c(C(=O)N2CCN(C(=O)c3ccco3)CC2)n1
Second: CCCNC(=O)COC(=O)/C=C/c1ccc(C)o1
The “hERG current change (%, negative = inhibition) at 1uM” value of the first is lower: 8.39% for the first, 12.2% for the second.
